Molecular target: T1, retinoid x receptor (RXRα) (human, UniProt P19793 1-462)
T1 construct: mature; In vitro translated full length receptor; 35S-labelled in the column and immunoprecipitation experiments
T1 sequence (looked up): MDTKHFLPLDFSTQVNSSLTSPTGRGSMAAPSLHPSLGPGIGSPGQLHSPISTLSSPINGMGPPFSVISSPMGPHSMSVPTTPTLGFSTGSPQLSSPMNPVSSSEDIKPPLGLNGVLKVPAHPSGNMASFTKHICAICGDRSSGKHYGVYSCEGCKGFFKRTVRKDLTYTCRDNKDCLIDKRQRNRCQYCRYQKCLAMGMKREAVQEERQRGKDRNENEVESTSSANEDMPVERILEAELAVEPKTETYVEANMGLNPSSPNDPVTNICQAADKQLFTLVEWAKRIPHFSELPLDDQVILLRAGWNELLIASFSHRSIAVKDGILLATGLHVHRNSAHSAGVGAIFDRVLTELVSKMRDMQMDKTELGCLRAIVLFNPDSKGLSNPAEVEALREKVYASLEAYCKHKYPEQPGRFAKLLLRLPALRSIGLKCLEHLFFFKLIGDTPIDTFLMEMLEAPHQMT
Assay: glutathione sepharose affinity column, 35S-labelled RXRα, no DNA

binding result: no binding
B1: glutathione S-transferase (vector control protein) (enzyme)
chain: not shown
notes: Control protein; also called glutathione transferase; glutathione transferase control protein

Source: patent US7098310 (LIGAND PHARMACEUTICALS, dated 2006)
